Results on 19 variants are retold here after the RNAGym collection of RNA variant scans (doi:10.1073/pnas.2313332121).

The chains are these.
B1: TPR 5TU (parent)
chain: GGAUCUUCUCGAUCUAACAAAAAAGACAAAUCUGCCACAAAGCUUGAGAGCAUCUUCGGAUGCAGAGGCGGCAGCCUUCGGUGGCGCGAUAGCGCCAACGUUCUCAACUAUGACACGCAAAACGCGUGCUCCGUUGAAUGGAGUUUAUCAUG

This sample is rich in variants without activity.

The data set covers variants of B1. Nature of the data set: polymerase ribozyme fitness, log enrichment relative to wild type (log ratio); higher = more active; in vitro selection for triplet polymerase activity. The procedure, abridged: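 For each subunit of a heterodimeric triplet polymerase ribozyme, a mutant library was built by PCR and transcribed, then taken through a single in vitro selection round in triplicate. Selection involved annealing to a biotinylated primer, the partner subunit and triplets, incubation frozen at −7 °C, gel excision of extended constructs, capture on streptavidin beads and RT-PCR. Genotypes were retained after Illumina sequencing of inputs and outputs only with ≥10 input reads and ≥1 read in each output. Fitness is defined as the logarithm of a genotype's enrichment relative to wild-type enrichment, using inverse-variance-weighted averages across replicates, with the logarithm taken to base 2.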
In the case of GGAUCUUCUCGAUCUAACAAAAAAGACAAAUCUGCCACAAAGCUUGAGAGCAUCUUCUGAUGCAGAGGCGGCAGCCUUCGGUGGCGCGAUAGCCCCAACGUUCUCAACUAUGACACUCAAAACGCGUGCUCCGUUGAAUGGACUUUAUCAUG [G58U G94C G117U G143C], the “polymerase ribozyme fitness (log ratio)” value was no more than -4.2. The value for GGAUCUUCUCGAUCUAACAAAAAAGACAAAUCUGCCACAAAGCUUGAGAGCAUCUUCGAAUGCAGAGGCGGCAGCCUUCGGUGCCGCGAUAGCGCCAAUGUUCUUAACUAUGACACGCAAAACGCGUGCUCCGUUGAAUGGAGUUUAUCAUG [G59A G84C C99U C105U] was no more than -4.2. The value for GGAUCUUCUCGAUCUAACAAAAAAGACAAAUCUGCCACAAAGCUUGAGAGCAUCUUCGAAUGUAGAGGCGGCAGCCUUCGGUGGAGCGAUAGCGCCAACGUGCUCAACUAUGACACGCAAAACGCGUGCUCCGUUGAAUGGAGUUUAUCAUG [G59A C63U C85A U102G] was no more than -4.2; that for GGAUCUUCUCGAUCUAACAAAAAAGACAAAUCUGCCACAAAGCUUGAGAGCAUCUUCUGAUGCAGAGGCGGCAGCCUUCGGUGGCUCGAUAGCGCCAACGUUCUCAACUAUGACACGCAAAACGCGUGCUCCGUUGAAUAGAGUUUAUCAUG [G58U G86U G140A] was no more than -4.2; that for GGAUCUUCUCGAUCUAACAAAAAAGACAAAUCUGCCACAAAGCUUGAGAGCAUCUUCGAAUGCAGAGGCGGCAGUCUUCGGUGGUGCGAUAGCGCCAACGUUCUCAACUAUGACACGCAAAACGCGUGCUCCGUUGAAUGGAGAUUAUCAUG [G59A C75U C85U U144A] was -1.61. For GGAUCUUCUCGAUCUAACAAAAAAGACAAAUCUGCCACAAAGCUUGAGAGCAUCUUCGAAUGCAGAGGCGGCAGGCUUCGGUGGCGCGAUAGCGCCAACGUUCUCAACUAUGACACGCAAAUCGCGUGAUCCGUUGAAUGGAUUUUAUCAUG [G59A C75G A122U C129A G143U], the “polymerase ribozyme fitness (log ratio)” value was -3.5.

For GGAUCUUCUCGAUCUAACAAAAAAGACAAAUCUGCCACAAAGCUUGAGAGCAUCUUCUUAUGCAGAGGCGGCAGCCUUCGGUGGCGCGAUAGCGCGAACGUUCUCAACUAUGACACGCAAAAAGCGUGCUCCGUUGAAUGGAGUUUAUUAUG [G58U G59U C96G C123A C149U], the “polymerase ribozyme fitness (log ratio)” value is -3.08. For the variant GGAUCUUCUCGAUCUAACAAAAAAGACAAAUCUGCCACAAAGCUUGAGAGCAUCUUCGAAUGCAGAGGCGGCAGCCUUCGGUGGUGCGAUAGCGCCAACGUUCUCAACUAUGACACGCAAAACGCGUGCUCCGUUGAAUGGAGUUUAUGAUG [G59A C85U C149G], the “polymerase ribozyme fitness (log ratio)” value is -3.59. GGAUCUUCUCGAUCUAACAAAAAAGACAAAUCUGCCACAAAGCUUGAGAGCAUCUUCGAAUGCAGAGGCGGCAGCCUUCGGUGGCGCGAUAGCGCCAACGUUCUCGACUAUGACACGCAAAACGCGUGCUCCGAUGAAUGGAGUUUAUCAUG [G59A A106G U134A]: the “polymerase ribozyme fitness (log ratio)” value is -2.03. For GGAUCUUCUCGAUCUAACAAAAAAGACAAAUCUGCCACAAAGCUUGAGAGCAUCUUCGAGUACAGAGGAGGCACCCUUCGGUGGCGCGAUAGCGCAAACGUUCUCAACUAUGACACGCAAAACGCGUGCUCCGUUGUAUGGAGUUUAUCAUG [G59A A60G G62A C69A G74C C96A A137U] the value was no more than -4.2. The value for GGAUCUUCUCGAUCUAACAAAAAAGACAAAUCUGCCACAAAGCUUGAGAGCAUCUUCUGAUGCAGAUUCGGCAGCCUUCGGUGGCGCGAUAGCGCAAACGUUCUCAACUAUGACACGCGAAACGCGUGCUCCGUUGAAUGGAGUUUAUCAUG [G58U G67U G68U C96A A119G] was no more than -4.2; that for GGAUCUUCUCGAUCUAACAAAAAAGACAAAUCUGCCACAAAGCUUGAGAGCAUCUUCUGAUGCAGAGGCGGCAGCCUUCGGGGGCGCGAUAGCGCCAACGUGCUCAACUAUGACACGCAAAACGCGUGCGUCGUUGAAUGGAGUUUAUCAUG [G58U U82G U102G U130G C131U] was no more than -4.2.

For the variant GGAUCUUCUCGAUCUAACAAAAAAGACAAAUCUGCCACAAAGCUUGAGAGCAUCUUCGAAUGCAGAGGCGGCAGUCUUCGGUGGCGCGAUAGCGCCAACGGUCUCAACUAUGACAAGCAAAUCGCGUGCUCCGUUCAAUGGAGUUUAUCAUG [G59A C75U U101G C116A A122U G136C], the “polymerase ribozyme fitness (log ratio)” value was no more than -4.2.

As to GGAUCUUCUCGAUCUAACAAAAAAGACAAAUCUGCCACAAAGCUUGAGAGCAUCUUCUGAUGCAGAGGCGGCAGCCUUCGGUGGCGCUAUAUCGCCAACGUUCUCAACUAUGACACGCAAAACGCGUGCUCCGUUGAAUGGAGUUUAUCAUG [G58U G88U G92U], the “polymerase ribozyme fitness (log ratio)” value was no more than -4.2. The value for GGAUCUUCUCGAUCUAACAAAAAAGACAAAUCUGCCACAAAGCUUGAGAGCAUCUUCGAAUGCAGAGGCGGCAGACUUCGGUGGCGCGAUAGCGCCAACGUUCUCAACUAUGACACGCAAAACUCGUGCUCCGUUGAAUGCAGUUUAUCAUG [G59A C75A G124U G141C] was no more than -4.2. For GGAUCUUCUCGAUCUAACAAAAAAGACAAAUCUGCCACAAAGCUUGAGAGCAUCUUCGAAUGCAGAGGCGGCAGCCUUCGGUGGGGCGAUAGCGCCUACGUUCUCAACUAUGCCACGCAAAACGCGUGCUCCGUUGAAUGGAGUUUAUCCUG [G59A C85G A97U A113C A150C] the value was no more than -4.2; for GGAUCUUCUCGAUCUAACAAAAAAGACAAAUCUGCCACAAAGCUUGAGAGCAUCUUCUGAUGCAGAGGCGGCAGCCUUCGGUGGCACGAUAGCGCCAACGUUCUCAACUAUGACACGCAAAACGCGUGCUCCGUUGAAUGGAGUUUAUCAUG [G58U G86A], -1.55; for GGAUCUUCUCGAUCUAACAAAAAAGACAAAUCUGCCACAAAGCUUGAGAGCAUCUUCGAAUACAGAGGCGGCAGCCUUCGGUGGCUCGAUAGCGCCAACGUUCUCACCUAUGACACGCAAAACGCGUGCUCCGUUGAAUGGAGUUUAUCAUG [G59A G62A G86U A107C], no more than -4.2. Consider GGAUCUUCUCGAUCUAACAAAAAAGACAAAUCUGCCACAAAGCUUGAGAGCAUCUUCGAAUGCAGAGGCGGCAGCCUUCCGUGGCGCGAUAGCGCCAACGUUCUCAACUAUGACACGCAUAACGCGUGCACCGUUGAAAGGAGUUUUUCAUG [G59A G80C A120U U130A U139A A147U], for which the “polymerase ribozyme fitness (log ratio)” value was no more than -4.2.
